# From paper PMC6919601, “Identification of Plasmodium dipeptidyl aminopeptidase allosteric inhibitors by high throughput screening” (PLoS ONE, 2019)
# Values joined by “and” are separate entries in the source; they are usually repeats but may differ in a detail not shown here. Equal values may be shown once. Among all 110,000 compounds or so, about 230 (0.21%) showed an effect of 50% or more. Some of the results follow.
# Molecular target: DPAP1 (Plasmodium falciparum, UniProt Q8IIJ9)
# Experiment: primary screen, percent inhibition; read by cleavage of a fluorogenic dipeptide substrate; higher = more effect of the substance
# Parameters: species or system P. falciparum D10 trophozoite lysates; single well
# 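Note: 30 min substrate incubation versus DMSO and 10 µM JCP410 controls.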
# DPAP1, sequence (Q8IIJ9 whole entry, looked up): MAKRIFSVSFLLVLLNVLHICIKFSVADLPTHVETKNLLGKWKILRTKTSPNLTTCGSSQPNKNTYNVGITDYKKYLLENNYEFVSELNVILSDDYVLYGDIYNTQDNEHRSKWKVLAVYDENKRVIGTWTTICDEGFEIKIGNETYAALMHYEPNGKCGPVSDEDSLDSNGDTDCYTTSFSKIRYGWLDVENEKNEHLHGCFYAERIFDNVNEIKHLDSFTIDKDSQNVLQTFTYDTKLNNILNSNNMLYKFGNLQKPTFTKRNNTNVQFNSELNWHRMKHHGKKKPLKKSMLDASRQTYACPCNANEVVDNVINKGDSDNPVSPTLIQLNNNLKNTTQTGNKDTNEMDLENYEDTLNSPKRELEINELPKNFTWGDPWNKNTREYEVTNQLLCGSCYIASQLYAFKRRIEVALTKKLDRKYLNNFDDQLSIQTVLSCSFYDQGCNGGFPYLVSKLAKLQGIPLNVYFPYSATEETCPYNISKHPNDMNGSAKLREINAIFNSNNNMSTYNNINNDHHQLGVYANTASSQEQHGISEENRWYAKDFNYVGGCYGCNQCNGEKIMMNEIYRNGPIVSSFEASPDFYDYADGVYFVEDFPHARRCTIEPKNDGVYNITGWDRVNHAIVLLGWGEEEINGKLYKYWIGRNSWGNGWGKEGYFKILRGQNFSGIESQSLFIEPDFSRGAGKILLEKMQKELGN
row,Compound,% Inhibition @ 10 uM
1,CCc1ccc(CNCc2c(C(=O)O)n(Cc3ccc(OC)cc3)c3cc(C)ccc23)cc1,-5.43%
2,C=CCNC(=O)c1ccccc1NS(=O)(=O)c1ccc(OC)c(OC)c1,1.86%
3,COc1ccc(-c2cn3c4c(=O)n(C)c(=O)n(C)c4nc3n2-c2ccc(OC)c(OC)c2)cc1,-1.11%
4,COCc1cc(C)nc2sc(C(=O)OC)c(N)c12,6.23%
5,O=C(NCc1ccccc1)c1cnc2ccc(S(=O)(=O)N3CCC4(CC3)OCCO4)cc2c1O,-3.21%
6,COc1cccc(N(CC(=O)Nc2ccc(C)cc2C)S(C)(=O)=O)c1,-1.43%
7,CCOc1ccccc1N1CCN(Cc2ccc(-c3ccccc3)cc2)CC1,-1.77%
8,Cc1nc(N2CCCCCC2)c2ccccc2n1,-1.12%
9,N#Cc1c(C(F)(F)F)cc(-c2cccs2)nc1S,88.5%
10,O=C(COc1ccc(Cl)cc1)Nc1ccc(Cl)c(Cl)c1,8.26%
11,Cc1cc(OCCCOc2cccc(/C=C3\NC(=O)NC3=O)c2)ccc1Cl,-0.178%
12,CCn1ncc(C(=O)NCc2ccccc2Cl)c1C,-0.171%
13,Cc1occc1C(=O)N1CCN(c2ccc([N+](=O)[O-])cc2)CC1,4.26%
14,O=[N+]([O-])c1cc2c3nnc(O)c-3c3n(c2cc1Cl)CCCCC3,9.67%
15,COc1ccc(-c2noc(CN(C(=O)c3cc(Cl)ccc3OC)C(C)C)n2)cc1,-1.54%
16,CCCCOc1ccccc1/C=c1\sc2nc(-c3ccncc3)nn2c1=O,-1.52%
17,Cn1c2ccccc2c2cnn(CC(=O)N3CCN(Cc4ccc5c(c4)OCO5)CC3)c(=O)c21,-3.67%
18,c1ccc(C2CCCC(c3ccccc3)S2)cc1 (stereo not drawn),2.3%
19,COC(=O)c1sccc1NC(=O)CSc1nnc2c3ccccc3n(C)c2n1,-5.96%
20,Nc1cc(C(=O)O)ccc1N1CCOCC1,3.29%
21,COc1cc2c(c(OC)c1OC)C(SC)=NC(C)(C)C2,-1.69%
22,CCOc1ccc(OCc2ccc(C(=O)NCc3ccncc3)o2)cc1,-5.5%
23,CC(=O)N(C)c1ccc(NC(=O)C23CC4CC(C2)CC(n2cnc(Br)n2)(C4)C3)cc1,6.74%
24,CC(C)CCNC(=O)c1cnn(C)c1C1CCN(C(=O)OC(C)(C)C)CC1,8.23%
25,CCn1c(C(=O)N2CCC(C(=O)NC3CCCC(C)C3C)CC2)cc2sccc21 (stereo not drawn),4.95%
26,O=C(Nc1ccc(Cl)cc1)Nc1ccccc1C(F)(F)F,1.29%

row,Compound,% Inhibition @ 10 uM
1,Cc1ccccc1CSc1nc2ccncc2n1CC(=O)NCCC1=CCCCC1,11.3%
2,CCOC(=O)c1conc1-c1cccs1,-3.5%
3,CCCNC(=O)C1CN1Cc1ccccc1 (stereo not drawn),6.52%
4,CC1Nc2ccccc2-c2c(NC(=O)CN(C)C)c3ccccc3n21 (stereo not drawn),-3.93%
5,COc1ccc2occ(CC(=O)Nc3sc4c(c3C(=O)NCc3ccccc3)CCCC4)c2c1,0.401%
6,Cc1cs/c(=N\C(=O)c2ccccc2)n1CCc1ccccc1,-2.97%
7,N#C/C(=C\c1ccc(Cl)cc1Cl)c1nc(-c2ccc(Br)cc2)cs1,4.16%
8,COc1ccc2c(C)c(CC(=O)N3CCOCC3)c(=O)oc2c1OC,0.895%
9,COc1cccc2c1NC(c1ccc(F)cc1)C1CC=CC21 (stereo not drawn),8.32%
10,Cc1nc(N)sc1-c1csc(NCCc2ccccc2)n1,1.32%
11,CCC(CC)C(=O)Nc1nc2ccccc2s1,-1.12%
12,Nc1c(C(=O)c2ccccc2)sc2nc3c(cc12)CN(Cc1ccccc1)CC3,3.96%
13,CCOCCCNC(=O)c1ccc(-n2c(C)cc3c2CCCC3)cc1,8.8%
14,Cc1ccnc(NC(=O)Cc2ccc(F)cc2)n1,0.843%
15,O=C(NCCN1CCCC1)c1ccc2c(c1)sc1nc(-c3ccc(F)cc3)cn12,6.13%
16,CN1CCC(N(C)Cc2ccc(Cl)cc2Cl)CC1,2.33%
17,Cc1cc(C)n(Cc2ccc(C(=O)Nc3cccc(Br)c3)o2)n1,-0.67%
18,CC(C)(C)NCCn1c(-c2ccccc2)cn2c3ccccc3nc12,1.67%
19,CC(C)C(=O)Nc1nnc(SCc2cc(=O)n3nc(C(C)C)sc3n2)s1,-1.55%
20,COc1ccccc1NC(=O)C1=C(C)N=C2CC(C)(C)CC(O)=C2C1c1ccccc1OC(C)C (stereo not drawn),4.67%
21,CCOC(=O)c1c(NC(=S)NCc2ccccc2)sc2c1CC(C(C)C)OC2 (stereo not drawn),-3.33%
22,Clc1ccc(N2CCN(Cc3ccc(Br)s3)CC2)cc1,3.16%
23,O=C1CCCC2=C1C(c1ccc(O)c(Cl)c1)C1=C(CCCC1=O)N2Cc1ccccc1,6.58%
24,O=C(NCCCc1ccccc1)c1ccc(CS(=O)(=O)c2ccc(Br)cc2)o1,1.68%
25,CCCN1CCN(C(=O)c2nn(C)c3c2CS(=O)(=O)c2ccccc2-3)CC1,-1.38%
26,OCC1CCCCN1Cc1ccc(F)c(F)c1 (stereo not drawn),2.65%

row,Compound,% Inhibition @ 10 uM
1,COc1ccc(S(=O)(=O)N2CCC(C(=O)NCC3CCCO3)CC2)cc1 (stereo not drawn),-2.45%
2,COc1cc(CN2CCSCC2)c([N+](=O)[O-])cc1OC,-2.81%
3,COCCNc1oc(/C=C/c2ccccc2OC)nc1C#N,-2.57%
4,CC1(C)CC(=O)C(/C=N/CCN2CCN(C(=O)CC3CCCC3)CC2)=C(O)C1,-0.736% and 6.12%
5,Cc1ccc(C(=O)Nc2ccc(Cl)cc2C(=O)O)cc1C,2.01%
6,CCCCN(Cc1ccccc1)C1CCN(CCc2ccccc2)CC1,2.1%
7,O=C(O)CN(CC(=O)Nc1ccccc1)S(=O)(=O)c1ccc(Br)cc1,-3.45%
8,COc1cc(C=O)ccc1OCC(=O)N1CCOCC1,1.58%
9,c1ccc(CN2CCN(c3nc4ccccc4c4nc(-c5ccccc5)nn34)CC2)cc1,-4.21%
10,COc1c(C(=O)NCc2ccc3c(c2)OCO3)ccc2ccccc12,-1.68%
11,CCCCN(C)C(=O)c1oc(=O)c2ccccc2c1-c1ccc(C)cc1,0.208%
12,CCCOC(=O)/C(=C/c1ccc2c(c1)OCO2)NC(=O)c1ccccc1Cl,3.27%
13,CCOC(=O)C1=C(C)OC(N)=C(C#N)C1c1ccc(C)cc1C (stereo not drawn),-0.744%
14,Cc1cc(C)c(S(=O)(=O)Nc2cc(Cl)c(Cl)cc2Cl)c(C)c1,0.247%
15,FC(F)(F)c1nc(N2CCOCC2)nc2c1CCCCC2,-13.7%
16,CCn1cc(CNC(=O)c2cc(-c3ccccc3)nc3ccccc23)cn1,1.39%
17,Nc1nc(-c2cc3cc(Br)cc(Br)c3oc2=O)cs1,18.1%
18,O=C(O)CCC(=O)Nc1ccc(N2CCN(c3ccc(Cl)cc3)CC2)cc1,0.214%
19,O=C(Nc1cc(C(F)(F)F)ccc1Cl)c1ccco1,-0.294%
20,c1ccc2c(c1)nc1n2CN(C2CCCCCC2)CN1,0.415%
21,Cn1c(=O)c2c(nc(SCc3ccccc3C#N)n2C)n(C)c1=O,-1.6%
22,CN1C(=O)C2(C(C#N)=C(N)OC3=C2C(=O)CC(C)(C)C3)c2ccccc21 (stereo not drawn),4%
23,CCC(Oc1ccccc1)C(=O)Nc1ccc(C(N)=O)cc1 (stereo not drawn),-3.24%
24,Cc1c(C(=O)O)nn(-c2ccc(F)cc2)c(=O)c1C#N,-0.736%
25,CC1=C(C(=O)Nc2cccc(C)n2)C(c2ccc(Cl)cc2)C2=C(O)CC(C)(C)CC2=N1 (stereo not drawn),5.89%
26,COc1cc(NC(=O)C2CCN(C(=O)c3cnn(-c4ccccc4)c3-n3cccc3)CC2)ncn1,-3.35%

row,Compound,% Inhibition @ 10 uM
1,CC(C)(C)c1ccccc1OCCCN1CCOCC1,2.26%
2,O=C(c1ccc(F)cc1)N1CCN(c2ccc([N+](=O)[O-])cc2)CC1,1.48%
3,O=C(O)c1ccc2c(c1)C1C=CCC1C(c1ccccc1Cl)N2 (stereo not drawn),7.98%
4,Cc1cccc(-c2nnc(-c3cccc(C)c3)o2)c1,3.03%
5,CCOc1ccc(NC(=O)c2cccnc2Cl)cc1,5.73%
6,O=C(Nc1nccs1)OCC1c2ccccc2-c2ccccc21,-9.91%
7,Cc1ccccc1OCC(O)Cn1c(NCCO)nc2c1c(=O)[nH]c(=O)n2C (stereo not drawn),1.67%
8,COc1ccc(CNCc2c(C(=O)O)n(Cc3ccccc3C)c3cc(C)ccc23)c(OC)c1,1.06%
9,O=C(O)c1ccc(-c2nc(S)c3c(n2)Oc2ccccc2C3)cc1,12.3%
10,Cc1ccc(S(=O)(=O)c2nnn3c2nc(NCCC2=CCCCC2)c2ccccc23)cc1,-8.09%
11,CCOc1ccc(CNC(=O)c2cc3c(=O)n(Cc4cccnc4)ccc3nc2C)cc1,-4.55%
12,COc1ccc(-c2cc(OC)c3ccccc3n2)cc1,-1.36%
13,CCCNC(=O)/C(=C/c1cn(CC)c2ccccc12)NC(=O)c1ccccc1,-1.74%
14,COc1cc(C=C(C#N)C#N)ccc1OCc1cccc2ccccc12,-4.48%
15,Cc1cccc(Cn2c(CN3CCOCC3)nc3c2c(=O)[nH]c(=O)n3C)c1,-4.69%
16,CC1CCCCN1CCCNC(=O)CNC(=S)N1CC2CC(C1)c1cccc(=O)n1C2 (stereo not drawn),-5.92%
17,CC1=C(C(=O)OCc2ccc3c(c2)OCO3)C(c2cccc(Cl)c2Cl)CC(=O)N1 (stereo not drawn),-2.24%
18,COc1ccc(CNC(=O)c2cc(-c3ccc(Cl)cc3)on2)cc1,-5.52%
19,Cc1ccc(NC(=O)/C=C/C(=O)O)cc1F,-3.03%
20,CCOc1ccccc1C(=O)Nc1ccccc1Cl,-2.44%
21,CCCN1CCC(NCc2cccc(C(F)(F)F)c2)CC1,2.7%
22,N#Cc1c(S)nc2c(c1/C=C/c1ccccc1)CCC2,17.3%
23,CN(C)CCCOC(=O)/C=C/c1ccccc1,3.01%
24,CC(NC(=O)c1cccnc1)c1cc2c(cc1Cl)OCCCO2 (stereo not drawn),-3.09%
